Results published in the supplement of paper PMC4967469.
Lines with a small IC50 respond at low doses; a limit (>, <) means that the fit lies beyond the doses tested. The AUC spans the tested range (256-fold, ending at the top dose) of the same fit; the more sensitive the line, the further below 1. For some assays here: Where the top dose is marked as inferred, it was derived from the fitted curves, not read from the paper.

Key:
Assay in all cases: Viability of human cancer cell lines after 72 h of drug (GDSC screen)
BMX-IN-1 (QL-XII-61) = compound: C=CC(=O)Nc1cc(-n2c(=O)ccc3cnc4ccc(-c5ccc(NS(C)(=O)=O)cc5)cc4c32)ccc1C [BMX-IN-1 (QL-XII-61)]; conditions: top dose 10 µM; top dose inferred
Procedure: (§1)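 Human cancer cell lines in 384-well plates, medium with 10% serum, drug for 72 h over a 256-fold dose range (nine 2-fold or five 4-fold steps up to the top dose). Adherent lines were fixed and stained with the nucleic acid dye Syto60, suspension lines read with resazurin; signal relative to control wells, capped at 0 and 100%. One two-parameter sigmoid per drug and line, fitted in a mixed model over all curves with the slope shared within a line.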

17-AAG = compound: C=CCNC1=C2C[C@@H](C)C[C@H](OC)[C@H](O)[C@@H](C)/C=C(\C)[C@H](OC(N)=O)[C@@H](OC)/C=C\C=C(/C)C(=O)NC(=CC1=O)C2=O [17-AAG]; conditions: top dose 1 µM
Procedure: as §1

CCT018159 = compound: CCc1cc(-c2n[nH]c(C)c2-c2ccc3c(c2)OCCO3)c(O)cc1O [CCT018159]; conditions: top dose 10 µM; top dose inferred
Procedure: as §1

BIX02189 = compound: CN(C)Cc1cccc(N=C(c2ccccc2)c2c(O)[nH]c3cc(C(=O)N(C)C)ccc23)c1 [BIX02189]; conditions: top dose 20 µM; top dose inferred
Procedure: as §1

Dimethyloxalylglycine = compound: COC(=O)CNC(=O)C(=O)OC [Dimethyloxalylglycine]; conditions: top dose 4000 µM; top dose inferred
Procedure: as §1

Doxorubicin = compound: COc1cccc2c1C(=O)c1c(O)c3c(c(O)c1C2=O)C[C@@](O)(C(=O)CO)C[C@@H]3O[C@H]1C[C@H](N)[C@H](O)[C@H](C)O1 [Doxorubicin]; conditions: top dose 1.024 µM
Procedure: as §1

OSI-027 = compound: COc1cccc2cc(-c3nc([C@H]4CC[C@H](C(=O)O)CC4)n4ncnc(N)c34)[nH]c12 [OSI-027]; conditions: top dose 20 µM
Procedure: as §1

Vismodegib = compound: CS(=O)(=O)c1ccc(C(=O)Nc2ccc(Cl)c(-c3ccccn3)c2)c(Cl)c1 [Vismodegib]; conditions: top dose 10 µM; top dose inferred
Procedure: as §1

VX-11e = compound: Cc1cnc(Nc2ccc(F)cc2Cl)nc1-c1c[nH]c(C(=O)N[C@H](CO)c2cccc(Cl)c2)c1 [VX-11e]; conditions: top dose 5.12 µM; top dose inferred
Procedure: as §1

TG101348 = compound: Cc1cnc(Nc2ccc(OCCN3CCCC3)cc2)nc1Nc1cccc(S(=O)(=O)NC(C)(C)C)c1 [TG101348]; conditions: top dose 10.24 µM
Procedure: as §1

UNC1215 = compound: O=C(c1ccc(C(=O)N2CCC(N3CCCC3)CC2)c(Nc2ccccc2)c1)N1CCC(N2CCCC2)CC1 [UNC1215]; conditions: top dose 1 µM; top dose inferred
Procedure: as §1

Cell Line	AUC (BMX-IN-1 (QL-XII-61))	IC50 (BMX-IN-1 (QL-XII-61)) [µM]	AUC (17-AAG)	IC50 (17-AAG) [µM]	AUC (CCT018159)	IC50 (CCT018159) [µM]	AUC (BIX02189)	IC50 (BIX02189) [µM]	AUC (Dimethyloxalylglycine)	IC50 (Dimethyloxalylglycine) [µM]	AUC (Doxorubicin)	IC50 (Doxorubicin) [µM]	AUC (OSI-027)	IC50 (OSI-027) [µM]	AUC (Vismodegib)	IC50 (Vismodegib) [µM]	AUC (VX-11e)	IC50 (VX-11e) [µM]	AUC (TG101348)	IC50 (TG101348) [µM]	AUC (UNC1215)	IC50 (UNC1215) [µM]
KMH-2 (thyroid, adherent)	0.987	> 10	0.926	> 1	0.941	> 10	0.99	> 20	0.775	1410	0.463	0.0514	0.236	0.24	0.99	> 10	0.986	> 5.12	0.766	3.38	0.989	> 1
KMRC-20 (kidney, adherent)	0.982	> 10	0.675	0.194	0.939	> 10	0.987	> 20	0.704	952	0.873	1.01	0.959	> 20	0.976	> 10	0.989	> 5.12	0.932	> 10.2	0.988	> 1
KNS-42 (glioma, adherent)	0.882	> 10	0.856	> 1	0.963	> 10	0.935	> 20	0.49	234	0.691	0.247	0.897	> 20	0.984	> 10	0.973	> 5.12	0.95	> 10.2	0.978	> 1
KU-19-19 (bladder, adherent)	0.98	> 10	0.961	> 1	0.803	4.96	0.987	> 20	0.716		0.911	> 1.02	0.898	> 20	0.967	> 10	0.609	0.638	0.964	> 10.2	0.986	> 1
KURAMOCHI (ovary, adherent)	0.98	> 10	0.885	> 1	0.876	> 10	0.962	> 20	0.731	1280	0.572	0.104	0.749	7.4	0.984	> 10	0.927	> 5.12	0.814	6.7	0.976	> 1
KYSE-50 (oesophagus, adherent)	0.989	> 10	0.959	> 1	0.876	8.42	0.96	> 20	0.513	271	0.553	0.0879	0.515	1.37	0.979	> 10	0.945	> 5.12	0.759	3.3	0.989	> 1
KYSE-150 (oesophagus, adherent)	0.988	> 10	0.487	0.0576	0.751	3.17	0.961	> 20	0.72	1020	0.318	0.0203	0.818	10.7	0.842	6.62	0.977	> 5.12	0.938	> 10.2	0.988	> 1
KYSE-220 (oesophagus, adherent)	0.969	> 10	0.913	> 1	0.843	7.65	0.903	> 20	0.721	1100	0.549	0.0879	0.709	5.06	0.985	> 10	0.965	> 5.12	0.787	4.72	0.983	> 1
KYSE-450 (oesophagus, adherent)	0.98	> 10	0.94	> 1	0.925	> 10	0.866	16.2	0.765	1390	0.43	0.0417	0.169	0.134	0.988	> 10	0.815	2.61	0.638	1.51	0.987	> 1
L-428 (Hodgkin lymphoma, suspension)	0.989	> 10	0.993	> 1	0.955	> 10	0.974	> 20	0.671	700	0.807	0.451	0.55	1.69	0.991	> 10	0.993	> 5.12	0.896	9.9	0.99	> 1
LAN-6 (neuroblastoma, adherent)	0.984	> 10	0.951	> 1	0.978	> 10	0.974	> 20	0.768	1770	0.69	0.244	0.85	19.8	0.985	> 10	0.934	> 5.12	0.748	3.83	0.977	> 1
LB373-MEL-D (melanoma, adherent)	0.825	5.85	0.938	> 1	0.99	> 10	0.982	> 20	0.663	701	0.67	0.188	0.959	> 20	0.99	> 10	0.924	> 5.12	0.989	> 10.2	0.989	> 1
